Assay results: the supplement of paper PMC9990464
Counter-ions that a name gives are not always drawn. The list shows a part of the results. Single values are uncertain, as repeats are few or missing.

system: SJNB8; assay: area under viability curve (10 nM-1 µM), viability relative to solvent or trametinib-only control (AUC (arbitrary, % viability x concentration range)); higher = less growth inhibition (more viable cells); conditions: 72 h compound exposure (96 h after seeding) h; trametinib co-treatment 0 µM
Description: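 Four neuroblastoma cell lines (KCNR, SKNBE, SJNB8, SKNAS) were seeded in 384-well plates. At 24 h, 1 µM trametinib or DMSO was added, followed by library compounds at 10 nM, 100 nM and 1 µM. Viability was read by MTT at 96 h and normalised to solvent-treated cells (DMSO arm) or to trametinib-only cells (trametinib arm). The area under the 3-point viability curve was computed in GraphPad Prism; units are as given (approx. 100000 = no effect).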
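Note: KCNR is a neuroblastoma cell line carrying an ALK mutation, in this DMSO arm without trametinib, viability was normalised to solvent-treated cells.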

Row | SMILES | area under viability curve
1 | C[C@]12CCC(=O)C(O)=C1CC[C@@H]1[C@@H]2CC[C@]2(C)C(=O)CC[C@@H]12 [Formestane] | 91500
2 | N[C@@H]1C[C@H]1c1ccccc1.N[C@H]1C[C@@H]1c1ccccc1 [Tranylcypromine hemisulfate] | 92000
3 | N.N.[Cl][Pt][Cl] [Cisplatin] | 105000
4 | N[C@@H](Cc1ccc(N(CCCl)CCCl)cc1)C(=O)O [Melphalan] | 94800
5 | C=C1C[C@@H]2[C@H](CC[C@]3(C)C(=O)CC[C@@H]23)[C@@]2(C)C=CC(=O)C=C12 [Exemestane] | 88500
6 | O=C(O)c1nn(Cc2ccc(Cl)cc2Cl)c2ccccc12 [Lonidamine] | 101000
7 | CC[C@H](Nc1nc(NCc2cnc(C)cc2C)c2ncn(C(C)C)c2n1)[C@@H](C)O [Fadraciclib] | 87400
8 | CCC(=O)CCCCC[C@@H]1NC(=O)[C@H]2CCCCN2C(=O)[C@H]([C@@H](C)CC)NC(=O)[C@H](Cc2cn(OC)c3ccccc23)NC1=O [Apicidin] | 76100
9 | CC(=O)Oc1ccc(/C=C/c2cc(OC(C)=O)cc(OC(C)=O)c2)cc1 [Triacetylresveratrol] | 86800
10 | C[C@]12CC[C@@H]3c4ccc(OC(=O)N(CCCl)CCCl)cc4CC[C@H]3[C@@H]1CC[C@@H]2OP(=O)(O)O [Estramustine phosphate sodium] | 65000
11 | Cc1ncc(CNC(=O)N(CCCl)N=O)c(N)n1 [Nimustine HCl] | 107000
12 | CC[C@@]1([C@H]2O[C@H]([C@H]3O[C@@](O)(CO)[C@H](C)C[C@@H]3C)C[C@H]2C)CC[C@H]([C@@]2(C)CC[C@]3(C[C@H](O)[C@@H](C)[C@@H]([C@H](C)[C@H](OC)[C@@H](C)C(=O)O)O3)O2)O1 [Monensin sodium] | 80400
